This passage reports binding signal results from paper PMC10668032.

This is one part of the list. At the low end of the ranking, values are background and their order means little.

For this test, the target named is SIX1-Q177R homeodomain (UniProt Q15475). In words: universal protein binding microarray. Conditions: Universal all-10-mer PBM (8x60K, AMADID 030236), 300 nM GST-tagged protein, Alexa Fluor 488 anti-GST; buffer, salt, pH and temperature not stated; high values mean tight binding; most listed sequences are background and not binding sites; double strand, one strand shown.
Consider GCACGGCC, for which the binding signal was 0.0152 E-score.

On to CCCCCTCA, for which the binding signal came to 0.223 E-score. GAGCTATA: the binding signal is -0.0682 E-score. Take AGATAGTA: the binding signal was -0.0707 E-score. The value for ATAGTGCC was 0.0545 E-score. ATATATGG: the binding signal was determined as 0.0341 E-score. The value for CGCACAGA was -0.236 E-score; that for GAGGAGGA was -0.171 E-score; that for AGAAACTC was -0.0973 E-score. GTAGGCTA: the binding signal turned out to be 0.0673 E-score. The value for AAGCTTAC was -0.102 E-score; that for AGCGGTTG was -0.0473 E-score. The value for AAGGGACG was -0.0234 E-score. The value for AAATAAGA was -0.138 E-score. Regarding AATGTTAG, the binding signal is -0.208 E-score. For the sequence TCCCCAAA, the binding signal is -0.00853 E-score. The figure for CCTATTCA is -0.123 E-score.

In the case of ATTTTAAA, the binding signal was -0.156 E-score. CAATTAAA: the binding signal was -0.129 E-score. The figure for TGTCCGAA is -0.0173 E-score; for TACGTCCA it is -0.203 E-score.

Take AAATAGGC: the binding signal is -0.0886 E-score.

For GTATCACA, the binding signal worked out at 0.3 E-score. The figure for CACAGCCC is -0.103 E-score; for AGGCAGAT it is -0.143 E-score. The value for ACGAGCGC was -0.0849 E-score; that for CTTTACAC was 0.431 E-score; that for CAGAGCGA was -0.228 E-score. The figure for CGGAGTAA is 0.266 E-score; for CCATCCGG it is 0.116 E-score; for ACTCCTAA it is 0.126 E-score. For the sequence AATGTTCG, the binding signal is -0.203 E-score.

For the sequence CTTTAGTA, the binding signal was -0.111 E-score. For the sequence CCGCATGA, the binding signal is -0.138 E-score. CCGCCAGC: the binding signal is 0.0115 E-score. With CGACTGAA, the binding signal is -0.259 E-score. The figure for CAGTATAC is 0.11 E-score; for AACACGAT it is 0.358 E-score. The value for ATCACTTA was -0.101 E-score; that for CATAATGA was -0.0778 E-score; that for TACGACAA was -0.0084 E-score. Consider CGACTAGA, for which the binding signal was 0.042 E-score. The figure for ATCCTGGA is 0.029 E-score; for AGCCGGCA it is -0.167 E-score.

Consider ATTGCCTC, for which the binding signal was 0.00981 E-score. Consider GAACCGGA, for which the binding signal is 0.0287 E-score. Take CATGCAGA: the binding signal is 0.0429 E-score. With GCGCCCCA, the binding signal is -0.168 E-score.

With GCACAAGA, the binding signal was -0.1 E-score. Turning to GCACTATA, the binding signal came out at 0.191 E-score. On to ACGTGCGA, for which the binding signal is -0.112 E-score. The value for GTAAACAA was 0.00205 E-score; that for ATAGACTC was -0.126 E-score.

Consider ACCGAGAT, for which the binding signal amounted to 0.105 E-score. The figure for CCGTCAGG is 0.00827 E-score; for GCGGGCAC it is 0.0445 E-score; for GGCCATTA it is -0.0716 E-score. The figure for CCGTTCTC is -0.117 E-score; for CACAAAAG it is -0.146 E-score; for CCATTTGA it is 0.0118 E-score.

For CCGCACAA, the binding signal is -0.164 E-score. The figure for ACGCACTC is 0.108 E-score; for ACGAGGTC it is 0.0594 E-score; for AAGGCCCC it is -0.161 E-score.

Regarding GATCGACA, the binding signal was 0.0764 E-score. The value for GTAAGTTA was 0.00332 E-score; that for ACCCACGG was 0.145 E-score; that for ATCGCGGG was 0.167 E-score. With GCAACGAC, the binding signal was -0.0904 E-score. The figure for CCAATAGC is 0.0132 E-score.

As for ACCAACTG, the binding signal is -0.0355 E-score. The value for GGTGTTAC was 0.474 E-score; that for CCGGAGCG was -0.0583 E-score. Consider CCATCCTA, for which the binding signal was -0.18 E-score.

Regarding CCACGGGA, the binding signal turned out to be 0.0285 E-score. As to AAGCCCGG, the binding signal came to 0.0254 E-score.

In the case of GCTATCCC, the binding signal stood at 0.0222 E-score. Regarding ATACCCCC, the binding signal amounted to 0.364 E-score. The figure for AAGAGCAC is 0.0766 E-score; for CGCCCTGC it is -0.0563 E-score. AGTAAACC: the binding signal was found to be 0.101 E-score. On to CCTTTCGA, for which the binding signal is -0.0929 E-score. Take AGGATGTC: the binding signal is -0.0186 E-score. Regarding TATGTTCA, the binding signal is -0.0544 E-score. The figure for CTGGCATA is 0.0828 E-score; for AGTGGAGA it is -0.181 E-score; for ACTGGTAG it is -0.0479 E-score. Consider CTAACTAC, for which the binding signal is 0.245 E-score. In the case of AGCCTGAG, the binding signal is -0.11 E-score. Consider TAAATCCA, for which the binding signal was -0.222 E-score. The value for CTGCGTAA was -0.27 E-score; that for AAAACAAT was -0.228 E-score; that for GCTGCATA was -0.197 E-score. The value for GTTACCTA was 0.115 E-score; that for TACCCGGA was 0.247 E-score. In the case of GAAGCAGA, the binding signal was -0.294 E-score. The figure for AATCCAGA is -0.145 E-score; for ATGCTTAG it is 0.0707 E-score; for TCTGGCCA it is -0.077 E-score. The figure for CATCGTCG is -0.163 E-score; for GCCCGTAA it is -0.197 E-score; for GTGGGTTA it is 0.0574 E-score. The value for CAAGTTGG was -0.118 E-score; that for GATAATGA was 0.113 E-score. For CAACCCGA, the binding signal stood at 0.0652 E-score. CTTTGTAA: the binding signal is -0.0489 E-score. The figure for AGCATGCG is -0.151 E-score; for ACGTGGGC it is 0.0136 E-score; for ACAAACCA it is -0.191 E-score.
